Biological target: human BCMA (B-cell maturation antigen) expressed on cells (human) (UniProt Q02223)
Assay: flow cytometry, hBCMA-expressing HEK293 cells against parental HEK293 cells

Sequence of UniProt Q02223 (Q02223 whole entry): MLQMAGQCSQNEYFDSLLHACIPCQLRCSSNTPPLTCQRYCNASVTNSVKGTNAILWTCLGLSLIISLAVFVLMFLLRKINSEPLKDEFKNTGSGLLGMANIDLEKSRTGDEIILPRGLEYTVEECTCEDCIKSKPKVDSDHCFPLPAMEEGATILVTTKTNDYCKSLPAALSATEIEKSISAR

B1: BCMA-19 scFv (scFv)
scFv: [about 100 residues not spelt out]DGGDVWGQGTTVTVSSGGGGSGGGGSGGGGSQAVLTQPASVSGSPGQSITISCTGTSSDVGDYNYVAWYQQHPGKDPKLMIFEVINRPSGVSDRFSGSKSGNTASLDISGLQPEDEADYYCISYSRGSTPYVIGTGTKVTVL
- fold selective binding (hBCMA-expressing HEK293 over parental HEK293): 4.2 fold

From patent US20230365699A1
